The list shows a part of the results.

For this assay, the target named is T1, OsWOX13 (Oryza sativa, UniProt Q5QMM3 1-267).
T1 sequence: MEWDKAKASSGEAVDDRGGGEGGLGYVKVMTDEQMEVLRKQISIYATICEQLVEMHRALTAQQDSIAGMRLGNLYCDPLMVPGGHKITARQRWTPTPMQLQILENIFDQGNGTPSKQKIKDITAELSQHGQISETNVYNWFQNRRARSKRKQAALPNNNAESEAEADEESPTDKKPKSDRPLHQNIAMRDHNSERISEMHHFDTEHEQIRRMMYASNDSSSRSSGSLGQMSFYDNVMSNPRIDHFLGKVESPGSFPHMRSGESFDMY
As to the kind of experiment: protein-binding microarray (RPBM); PBS, 2% BSA, 51.3 ng/ul salmon testes DNA, 50 uM zinc acetate, 200 nM TF, 25 C, 1 h; high values mean tight binding. The following applies: protein: recombinant; tags: N-terminal polyhistidine and DsRed monomer fusion (pET32a); label: CyDye5-dUTP incorporated in the synthesized complementary strand; 3' TTTTT single-stranded linker to array surface; dsDNA, one strand shown. An outline of the steps: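 In PBS with 2% BSA, salmon testes DNA and 50 µM zinc acetate, 200 nM protein was incubated on a custom Agilent array at 25 °C for 1 h and then washed off. The array had been made double-stranded by primer extension with Cy5-dUTP and blocked with 2% BSA. The proteins were transcription factors fused N-terminally to polyhistidine and DsRed, expressed in E. coli BL21-CodonPlus and purified on Ni–NTA. The binding signal is per-feature fluorescence intensity (arbitrary units) from an Axon 4000B scanner.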
For “CTTGTGAAGACTGCTTCTGATTGGCTATGCATAGCCACGACGGAGTCACCTAGTGCAG”, the binding signal is 11500 fluorescence intensity (a.u.).
As for “ATCAAATTACAAGATTGCATATAAGTGAGAAGGATTGGGGCGGAGTCACCTAGTGCAG”, the binding signal was 10900 fluorescence intensity (a.u.).
Turning to “TTATATATGATAATTATATATATGATAATTTGTTCAATGACGGAGTCACCTAGTGCAG”, the binding signal is 9780 fluorescence intensity (a.u.).
“TCTGATGAAATGTACTACAGCTTGCTTAAAATTCATATGCCGGAGTCACCTAGTGCAG”: the binding signal was 3790 fluorescence intensity (a.u.).
As to “TTGACTAATGATAATTTAGAGCCAATAGTTAGCTATACTACGGAGTCACCTAGTGCAG”, the binding signal was 19700 fluorescence intensity (a.u.).
On to “ACCCGATTACATTTGATGAGCATAGTAGGCCATAAATTTGCGGAGTCACCTAGTGCAG”, for which the binding signal was 7550 fluorescence intensity (a.u.).
With “CCTTTTGATTTTACTACCTACTGATTGTAGTCATAGGTTCCGGAGTCACCTAGTGCAG”, the binding signal was 15300 fluorescence intensity (a.u.).
Consider “GCAGTAAGATAGACTGACATATATATTGGCAGTCAAAGTTCGGAGTCACCTAGTGCAG”, for which the binding signal is 7100 fluorescence intensity (a.u.).
Next, “CATAATTTGTTTCTGGGTTCTGCTGTTCTGCTCCTCCTCTCGGAGTCACCTAGTGCAG”: 28500 fluorescence intensity (a.u.).
Regarding “ATTGGAATCCTGATTGCATAGGGTTTAACCTTATAGAAGCCGGAGTCACCTAGTGCAG”, the binding signal is 5150 fluorescence intensity (a.u.).
Next, “AACAAGCCCTAACTTAAATTGACAAATTTAACTCCAAATTCGGAGTCACCTAGTGCAG”: 11900 fluorescence intensity (a.u.).
Next, “CTTCAAATTGTGAGTTAATCTGGGCCAATATGGCAAATATCGGAGTCACCTAGTGCAG”: 3780 fluorescence intensity (a.u.).
Regarding “ACTTGACTGAATAAACAAACGAGTGATCCAGAGAGGGGAGCGGAGTCACCTAGTGCAG”, the binding signal was 34500 fluorescence intensity (a.u.).
Next, “TCTGATTTAACTATAGGGATACAAGTAGGCCTATGTGGGTCGGAGTCACCTAGTGCAG”: 32400 fluorescence intensity (a.u.).
Next, “GTTCTAATTTCTAAATGTAATAGTAATGTATAGGCGTGGCCGGAGTCACCTAGTGCAG”: 14200 fluorescence intensity (a.u.); “GCTGGATACGTGATTTGCCTGGAATGCACTACGGTTGATTCGGAGTCACCTAGTGCAG”: 4700 fluorescence intensity (a.u.); “TGGAAATAAATCAGGATTGTTAGATTTTGAACGTGTGTATCGGAGTCACCTAGTGCAG”: 5390 fluorescence intensity (a.u.).
Next, “TAGTGCTAATTAACTAGAGGATGAGATAAGCCGTTGGACACGGAGTCACCTAGTGCAG”: 16900 fluorescence intensity (a.u.); “GCCTGATTATCCATTGTTCATCCTGCCATATTGATTTCAGCGGAGTCACCTAGTGCAG”: 30300 fluorescence intensity (a.u.).
As for “GTCTTTAAATTTGTTATATGTAGCACAACCGTAAAAGGGCCGGAGTCACCTAGTGCAG”, the binding signal is 4130 fluorescence intensity (a.u.).
For the sequence “ATAATAGATGCAAAATTACATATCTAATACGGATATCTGACGGAGTCACCTAGTGCAG”, the binding signal is 11500 fluorescence intensity (a.u.).
Consider “CTGATTCCATGTTACCGTCAATCGTGAGGCCATCAGTTCCCGGAGTCACCTAGTGCAG”, for which the binding signal was 8150 fluorescence intensity (a.u.).
As for “TCTCATTAATTAGATACTAACATATGCTTATCTGAATCTCCGGAGTCACCTAGTGCAG”, the binding signal is 27800 fluorescence intensity (a.u.).
Next, “GATGACCTTAATTTGATTCCCAGAACATAAAATAAAAGGGCGGAGTCACCTAGTGCAG”: 12700 fluorescence intensity (a.u.).
As for “TCGATTGACAGTACACATCGTAGCCTGCATCAACGCAGAGCGGAGTCACCTAGTGCAG”, the binding signal is 24400 fluorescence intensity (a.u.).
The figure for “GAAGGGGAGCGGCGAAGCCCTGCTGGTTCGCTCAATTCATCGGAGTCACCTAGTGCAG” is 3380 fluorescence intensity (a.u.); for “CAATCAATCAAAGCACACAGATCTGAGCTAGCTAGCGCCCCGGAGTCACCTAGTGCAG” it is 21600 fluorescence intensity (a.u.).
On to “AATAATTTATGAATAAAACTTTTATATACGTGTCCTTAGCCGGAGTCACCTAGTGCAG”, for which the binding signal was 29400 fluorescence intensity (a.u.).
The figure for “AGTCGTTAGCGATTTAATTATATACAATAATCTTCACGTGCGGAGTCACCTAGTGCAG” is 4060 fluorescence intensity (a.u.); for “ACTCGTGATTTACTAAAACATTGCCCTATTGAAACCCTAACGGAGTCACCTAGTGCAG” it is 15100 fluorescence intensity (a.u.).
In the case of “AATAAAAGATTATCATATCTAAATAGAAGATATACCATCTCGGAGTCACCTAGTGCAG”, the binding signal was 4160 fluorescence intensity (a.u.).
With “TTGTTAAATCATGGCGCAATTAGACTTAAAAGATTCGTCTCGGAGTCACCTAGTGCAG”, the binding signal is 8820 fluorescence intensity (a.u.).
For the sequence “AAGCTAATCATCAGAGTTATGCTGAGGATTCTAGCTTACACGGAGTCACCTAGTGCAG”, the binding signal is 7330 fluorescence intensity (a.u.).
The figure for “TCAGACAGACCAAATTGGGCTAAATATGAGACATTTAGGGCGGAGTCACCTAGTGCAG” is 7290 fluorescence intensity (a.u.); for “CTCACCTGTGACAGGTGTTAAATTTGCAACCCGTCAAAGACGGAGTCACCTAGTGCAG” it is 8680 fluorescence intensity (a.u.).
Take “GTGTACTGATAGAGATTAGCAGCAGCTTAGTACTTCATGCCGGAGTCACCTAGTGCAG”: the binding signal is 9610 fluorescence intensity (a.u.).
Next, “ATTAATTATTATCCAAGCGCAAACATGAAACATCCCTCCCCGGAGTCACCTAGTGCAG”: 25900 fluorescence intensity (a.u.).
The figure for “CGATGGTCCGGTGACAAATTAATCAACTTGACGTGGAGATCGGAGTCACCTAGTGCAG” is 3580 fluorescence intensity (a.u.); for “CCCAAATAGAAGTAGAATTGAGACACTGAGTGGTGCAAAGCGGAGTCACCTAGTGCAG” it is 3400 fluorescence intensity (a.u.); for “CCAAACTTGCAATTCAATCTTTAAACTAATAATTAGCATGCGGAGTCACCTAGTGCAG” it is 12600 fluorescence intensity (a.u.).
The figure for “CAAACGTCAATTAATATAGAATTGGAGGGAGTATATACCTCGGAGTCACCTAGTGCAG” is 18200 fluorescence intensity (a.u.); for “ATATAATTTGAAATGGAAAATTACATGGTTACATGAAACTCGGAGTCACCTAGTGCAG” it is 32800 fluorescence intensity (a.u.); for “ATTAATGAATGTTAATTTGTTGTTTGCCACAAGTGACTGGCGGAGTCACCTAGTGCAG” it is 32700 fluorescence intensity (a.u.).
With “TCAATTGATTATTACTGCCGCTTACTGTCTCCTCTACTGCCGGAGTCACCTAGTGCAG”, the binding signal was 53300 fluorescence intensity (a.u.).
Next, “AAACAGATTATGATGGTAATCTTCTGTCCTCGCTGCGCCTCGGAGTCACCTAGTGCAG”: 6960 fluorescence intensity (a.u.).

The record behind these values is PMC7819943, “Rice protein-binding microarrays: a tool to detect cis-acting elements near promoter regions in rice”.
